Reference: publication PMC4336329 (PLoS ONE, 2015)
Hit rate of the full screen: of about 310,000 compounds, about 2,200 (0.71%) showed an effect of 50% or more. The effect is printed as a negative number. Some of the results follow.

These compounds were tested against human ether-à-go-go-related gene (hERG) potassium channel (human, UniProt Q12809) (assay: primary screen, population patch clamp on CHO cells stably expressing hERG).
Chain of human ether-à-go-go-related gene (hERG) potassium channel (Q12809 whole entry, looked up): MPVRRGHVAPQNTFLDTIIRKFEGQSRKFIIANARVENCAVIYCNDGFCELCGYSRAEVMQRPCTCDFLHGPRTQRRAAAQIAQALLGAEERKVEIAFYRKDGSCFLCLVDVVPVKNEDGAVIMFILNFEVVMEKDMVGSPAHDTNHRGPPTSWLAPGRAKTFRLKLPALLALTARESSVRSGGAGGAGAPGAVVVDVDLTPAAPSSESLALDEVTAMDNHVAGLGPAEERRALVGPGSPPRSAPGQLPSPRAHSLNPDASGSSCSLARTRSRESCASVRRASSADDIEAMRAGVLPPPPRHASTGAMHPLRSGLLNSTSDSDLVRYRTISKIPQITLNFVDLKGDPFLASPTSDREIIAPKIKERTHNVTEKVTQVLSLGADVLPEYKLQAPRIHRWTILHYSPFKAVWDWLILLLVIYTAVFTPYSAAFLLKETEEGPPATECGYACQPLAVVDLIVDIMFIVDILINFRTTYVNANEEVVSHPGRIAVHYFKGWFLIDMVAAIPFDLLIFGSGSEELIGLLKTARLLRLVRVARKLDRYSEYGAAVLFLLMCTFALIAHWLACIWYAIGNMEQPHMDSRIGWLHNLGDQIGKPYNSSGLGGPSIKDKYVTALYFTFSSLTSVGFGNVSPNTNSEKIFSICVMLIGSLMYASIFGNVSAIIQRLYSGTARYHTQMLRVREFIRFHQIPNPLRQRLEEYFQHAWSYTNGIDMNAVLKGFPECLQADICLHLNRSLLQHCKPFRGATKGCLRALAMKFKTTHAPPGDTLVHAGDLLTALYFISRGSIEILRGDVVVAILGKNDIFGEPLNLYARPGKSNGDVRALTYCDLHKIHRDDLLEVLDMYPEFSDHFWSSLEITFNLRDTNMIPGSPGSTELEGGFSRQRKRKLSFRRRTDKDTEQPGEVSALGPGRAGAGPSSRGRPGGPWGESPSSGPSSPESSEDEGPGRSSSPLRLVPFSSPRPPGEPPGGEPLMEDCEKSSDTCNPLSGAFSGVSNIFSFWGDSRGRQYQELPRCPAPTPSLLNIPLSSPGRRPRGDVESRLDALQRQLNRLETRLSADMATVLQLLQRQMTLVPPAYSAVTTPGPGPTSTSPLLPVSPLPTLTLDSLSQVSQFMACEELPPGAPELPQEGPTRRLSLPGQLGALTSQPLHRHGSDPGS

| Structure (SMILES) | hERG current change (%, negative = inhibition) at 1uM [%] |
| --- | --- |
| O=[N+]([O-])c1cc([N+](=O)[O-])c(Oc2cc(Cl)ccc2Cl)cc1NC1CCCCCCC1 | 18.6 |
| Cc1cc(Cl)ccc1OCc1nnc2n1CCCCC2 | 1.87 |
| Cc1ccccc1CCN(CC(=O)NC1CCCCC1)C(=O)c1csnn1 | 14.8 |
| CC(C)(C)c1ccc(NC(=O)CSc2nnc(-c3n[nH]c4ccccc34)o2)cc1 | -3.31 |
| O=C(Nc1cccc(F)c1)c1ccc(Cn2cc([N+](=O)[O-])cn2)o1 | 8.89 |
| O=C(CSc1nccc(=O)[nH]1)Nc1ccccc1Sc1ccccc1 | 10.8 |
| CC(=O)c1cccc(N(CC(=O)NCCc2ccccc2)C(=O)c2csnn2)c1 | 5.69 |
| CCn1cc(C(=O)N2CCN(Cc3ccc4c(c3)OCO4)CC2)c2cc(OC)c(OC)cc2c1=O | 4.88 |
| O=S(=O)(Cc1ccccc1)C1CCCCC1O (stereo not drawn) | 9.86 |
| CC1(C)NC(=O)N(CCCCOc2ccc(Cl)cc2)C1=O | -10.3 |
| Cc1ccccc1OCc1nnc2c3cnn(C)c3ncn12 | 5.31 |
| Cc1[nH]c2ccccc2c1/C=N/Nc1nc2ccccc2[nH]1 | 11.1 |
| O=C(CN1CCN(S(=O)(=O)c2ccc(Cl)s2)CC1)NCc1ccc(Cl)cc1 | 15.8 |
| COc1cc(NC(=O)CS(=O)(=O)c2ccccc2)cc(OC)c1OC | 15.9 |
| Cc1cccc(C)c1N=C1NN=C(c2ccccc2F)CS1 | 1.08 |
| COc1ccccc1NC(=O)c1ccc2c(c1)N(CC(=O)NC(C)(C)C)C(=O)C(C)(C)O2 | 10.1 |
| Cc1c(Cl)cccc1N=C1SCCN1C(=O)CN1C(=O)NC2(CCCC2)C1=O | 10.7 |
| Cc1cc(C)c(C(=O)N2CCCC(CNS(=O)(=O)N(C)C)C2)o1 (stereo not drawn) | 12.2 |
| O=C(Nc1cccc([N+](=O)[O-])c1)c1cnccn1 | 7.17 |
| CCCOc1cc(C)c(S(=O)(=O)n2ccc(C)n2)cc1C | -0.817 |
| COC(=O)c1ccccc1NC(=O)CCCn1nc([N+](=O)[O-])cc1C | 2.03 |
| Nc1ccc2oc(-c3cccc4ccccc34)nc2c1 | 13.6 |
| COc1ccc(N2CCN(S(=O)(=O)c3c(C)[nH]c(C)c3C(=O)N3CCCC3)CC2)cc1 | 14.5 |
| COCCn1c(=NC(=O)CCS(=O)(=O)c2ccccc2)sc2c(OC)ccc(OC)c21 | 4.94 |
